From ChEMBL document CHEMBL1157539, “Thousands of chemical starting points for antimalarial lead identification” (Nature, 2010) come the findings set out here.

In all, about 13,000 compounds were measured (“IFI”: median about 4, highest 2% from about 17 on). This is one part of the list.

The experiment is described as follows: GSK_TCMDC: Inhibition Frequency Index (IFI). The number of non-kinase HTS assays where a compound showed > 50 % inhibition, expressed as a percentage of the number of such assays in which the compound was tested (-0 is zero). Type of experiment: functional.
In turn, `CN1CCCN(c2ccnc3cc4c(cc23)N(C(=O)c2ccc(Cl)cc2Cl)CC4)CC1` yielded an IFI of 0.72%. For `CCCCCCCCCC(=O)NCC1CC(Br)=NO1` (stereo unspecified), the IFI was 1.54%. The result for `Nc1cc(-c2ccc3ccccc3c2)nc2ccccc12` reads 5.56%; that for `NCCNc1ccnc2cc(Cl)ccc12`, 2.9%; that for `O=C(Nc1cccc(CN2CCCN(Cc3cccnc3)CC2)c1)c1cc2ccccc2s1`, 3.94%. Take `OC1CCN(c2cc(-c3ccccn3)nc(-c3ccccn3)n2)CC1`: the IFI is 4.79%. In turn, `CCN(CC(C)O)C(=O)c1ccc(-c2ccc(-c3nc4cccc(C)c4[nH]3)cc2)cc1` (stereo unspecified) had an IFI of 1.39%. As for `O=C(CCc1cccnc1)Nc1cccc(-c2ccc(-c3nc4cc(C(F)(F)F)ccc4[nH]3)s2)c1`, the IFI is 3.54%. In the case of `Cc1cc(-c2ccc(CNC3Cc4ccccc4C3)cc2)ccc1S(=O)(=O)NCCN1CCCC1`, the IFI is 14.3%. To `CSc1ccc2nccc(Nc3ccc(Oc4ccccc4)cc3)c2c1` belongs 3.73%. To `Cc1ccc(OC2CCN(CCCCC3(C)C(=O)Nc4ccccc43)CC2)cc1` (stereo unspecified) belongs 2.17%; to `O=C(Nc1ccc(C(F)(F)F)cc1)c1ccc(S(=O)(=O)NCC2CCCN(CC3CCCCC3)C2)cc1` (stereo unspecified), 11.9%. `COc1cc(Cc2cnc(N)nc2N)cc(OCCCCc2nnn[nH]2)c1OC` displayed an IFI of -0%. The molecule `CCn1c(-c2nonc2N)nc2c(-c3cc4ccccc4s3)ncc(C(=O)N3CCC(N)C3)c21` (stereo unspecified) gave an IFI of 10.2%. Molecule `COc1cc2c(cc1C(F)(F)F)N(C(=O)Nc1cc(F)c(F)c(-c3cccnc3)c1)CC2` showed an IFI of 1.47%.

The molecule `N=C(N)c1ccc2[nH]c(-c3cc4cc(C(=N)N)ccc4o3)cc2c1` returned an IFI of 3.7%. The result for `CCCN(CCC)C(C)CCC(C)Nc1c2ccc(Cl)cc2nc2ccc(OC)cc12` (stereo unspecified) reads 2.96%; that for `COc1ccc2nc3cc(Cl)ccc3c(NCCCCN3CCNCC3)c2c1`, 7.53%.

The molecule `Nc1ccnc2ccc(NC(=O)CCCCCc3ccccc3)cc12` registered an IFI of 3.57%. On to `O=C(/C=C/c1ccccc1Cl)Nc1ccc(Br)c(OCCN2CCCCC2)c1`, for which the IFI stood at 5.52%. To `Oc1ccc(-c2ccccc2)cc1CN1CCCCC1` belongs 0.75%; to `N#Cc1ccc(-c2ccc(C(=O)Nc3ccc4c(c3)CCN(C3CCC3)CC4)nc2)cn1`, 2.19%; to `COc1cc(C(=O)N2CCOC(CCN3CCC4c5ccccc5CC43)(c3ccc(Cl)c(Cl)c3)C2)cc(OC)c1OC` (stereo unspecified), 4.96%.

Turning to `CC(C)(C)N1CCC(N(Cc2ccc(-c3ccc(C(F)(F)F)cc3)cc2)C(=O)Cn2c(CCc3cccc(F)c3F)cc(=O)c3cccnc32)CC1`, the IFI was 14.2%.

For the molecule `COc1cc(C(=O)N2CCN(C(C)C)CC2)ccc1CN(C)CCCCN1CCN(c2cccc(Cl)c2Cl)CC1`, the IFI came out at 14.5%. With `O=C(Nc1ccccc1N1CCOCC1)c1ncoc1-c1ccccc1C(F)(F)F`, the IFI came out at 3.57%. As to `OC(CNCc1cccc(Oc2ccc(Cl)cc2)c1)c1cccc(C(F)(F)F)c1` (stereo unspecified), the IFI was determined as 3.45%. Molecule `Cc1ccccc1Nc1nc(NCc2ccccc2)nc2ccccc12` displayed an IFI of 8.7%. On to `OCCN1CCN(Cc2ccc(-c3cccc(-c4nc5ccccc5[nH]4)c3)cc2)CC1`, for which the IFI was 2.88%.

`N#Cc1cccc(-c2ccc(C(=O)Nc3ccc4c(c3)CCN(C3CCC3)CC4)cn2)c1` returned an IFI of 2.27%.

`CCSc1ccc(C)cc1CON1C(N)=NC(N)=NC1(C)C` came in with an IFI of 6.34%. To `COc1ccc2nc(C)cc(NCc3cccc4ccccc34)c2c1` belongs 1.46%; to `CCCC(=O)Nc1ccc(Nc2nc(C)cc(N3CCCC3)n2)cc1`, 2.38%. `Cc1ccc(C2CCN(CCCCNC(=O)c3ccc(-c4ccc(C(F)(F)F)cc4)cc3)CC2)c(O)c1` showed an IFI of 10.3%. The result for `O=C(Nc1ccc(F)c(Cl)c1)c1cc([N+](=O)[O-])cc2cn[nH]c12` reads 5.88%; that for `Cc1[nH]c2ccc(C#N)cc2c(=O)c1Br`, -0%.

In turn, `CC(C)[C@@H](NC(=O)NC1CCC(CCN2C3CCC2CC(OC(=O)C(CO)c2ccccc2)C3)CC1)C(O)(c1ccccc1)c1ccccc1` (stereo partly specified) returned an IFI of 7.07%. As to `CC(C)(C)c1cc2cc(Nc3ccnc4cc(-c5nccs5)ccc34)ccc2[nH]1`, the IFI was found to be 4.41%. To `CC(C)(NCc1ccc(OC(F)(F)F)cc1)c1nc(-c2ccc(Cl)c(O)c2)c(-c2ccncc2)[nH]1` belongs 6.38%; to `Cc1cc(N[C@@H](Cc2ccccc2)C(=O)Nc2ccccc2)nc(Nc2ccccc2)n1`, 4.65%. The result for `CC(C)C(=O)n1ncc2c3c(N)nc(N)nc3ccc21` reads 0%; that for `Cn1cnc(CCNC(=O)c2ccc(-c3cccc(-c4nc5cc(C(F)(F)F)ccc5[nH]4)c3)cc2)c1`, 3.77%; that for `CCN(CC)CCCC(C)Nc1nc(C=Cc2ccc(Br)cc2)nc2cc(Cl)ccc12` (stereo unspecified), 3.65%. To `CN(Cc1cccc(O)c1)C1CCN(c2cc(NC(=O)c3ccc(F)cc3)ccn2)CC1` belongs 0%. Regarding `CN(C)Cc1ccc(-c2ccc3c(Nc4ccc(Oc5ccccc5)cc4)ccnc3c2)o1`, the IFI turned out to be 7.19%. On to `COc1cc(Nc2nccn3c(-c4ccsc4)cnc23)cc(OC)c1OC`, for which the IFI came to 10%. To `Cc1onc(-c2ccccc2)c1C(=O)Nc1nc(-c2ccccn2)nc2ccsc12` belongs 7.63%; to `Cc1cccc2nc(-c3cccc(-c4cccc(NC(=O)c5cncn5C)c4)c3)[nH]c12`, 1.79%. To `CN(C)c1ccc2c(c1)Sc1cc(N(C)C)ccc1N2C(=O)c1cccc(C(=O)O)c1` belongs 3.68%. To `CC(C)(C)c1cc(C(=O)Nc2ccc(C(=N)N)cc2)c(O)c(C(C)(C)C)c1` belongs 11.4%. Molecule `Cc1ccc2[nH]c(-c3cc(-c4cccc(CCN5CCOCC5)c4)cnc3N)nc2c1` had an IFI of 6.67%.

For `CC(C)N1CCN(C(CN2CCN(CCCOc3cccc(-c4ccccc4)c3)CC2)c2ccc(F)cc2)CC1` (stereo unspecified), the IFI stood at 16%. Molecule `O=C(Nc1ccc(C(F)(F)F)cc1)c1ccc(NCCCN2CCCCCC2)c([N+](=O)[O-])c1` registered an IFI of 6.47%. To `CC(=O)C=C1CC(=O)N(C[C@@H](O)[C@H]2O[C@@H]3OC(C)(C)O[C@@H]3[C@H]2O)c2ccccc2N1` belongs -0%; to `CN(CCCCNC(=O)/C=C/c1ccccc1)C1CC2(CCN(C(=O)OC(C)(C)C)CC2)c2ccccc21` (stereo unspecified), 3.08%; to `Fc1ccc(CNc2ncc(-c3ccsc3)c(-c3nccs3)n2)cc1`, 6.74%.

On to `O=C(/C=C/c1ccc(Cl)c(Cl)c1)N1CCC(C(O)CN2CCC(c3c[nH]c4ccccc34)CC2)CC1` (stereo unspecified), for which the IFI was found to be 9.38%. The molecule `Cc1cnc(N2CCN(CCCN3CCCC3)CC2)nc1Oc1ccc(-n2ccnc2)cc1` showed an IFI of 2.86%.

`O=C(Nc1cc(F)cc(F)c1)N[C@H]1CCN(CCCCCNC(=O)C2CC2c2ccc(Cl)c(Cl)c2)C1` (stereo partly specified) had an IFI of 13.6%. Molecule `COc1ccccc1C1CCN(Cc2csc(NC(=O)c3ccc(-c4ccc(C(F)(F)F)cc4)cc3)n2)CC1` gave an IFI of 8.55%. Consider `O=C(Nc1cc(C(F)(F)F)cc(C(F)(F)F)c1)c1cc(C(F)(F)F)cc(C(F)(F)F)c1`, for which the IFI was found to be 3.65%. On to `N#CCCN1CCN(Cc2ccc(-c3ccc(-c4nc5cc(F)ccc5[nH]4)s3)cc2)CC1`, for which the IFI is 6.94%. `CCc1nc(N)nc(N)c1-c1ccc(C(C)C)cc1` yielded an IFI of 2.29%. For the molecule `c1ccc(Oc2ccc(Nc3ccnc4c(-c5ccccn5)cccc34)cc2)cc1`, the IFI came to 5.88%. In the case of `O=C(Nc1ccc(-c2ccccc2)s1)N[C@H]1CCN(Cc2ccc(OCCCN3CCCCC3)cc2)C1`, the IFI is 7.14%.

`Cc1cc2cc(NC(=O)Nc3ccnc4ccccc34)ccc2n1C` displayed an IFI of 8.27%. The result for `COc1ccc(S(=O)(=O)NCCC2CCN(CCCCCNC(=O)C=Cc3ccc(Cl)c(Cl)c3)CC2)cc1` reads 5.07%; that for `CC1CCc2c(C(=O)Nc3c(F)cc(F)cc3Br)csc2C1` (stereo unspecified), 5.71%; that for `FC(F)(F)c1ccc2c(NN=Cc3cccc(Cl)c3)ccnc2c1`, 1.45%. `c1cc(CNCc2ccc3c(c2)OCO3)cc(-c2cccc(CNc3ccc4ncccc4c3)c2)c1`: the IFI amounted to 5.07%.

In turn, `CCN(CC)CCN(Cc1ccc(-c2ccc(C(F)(F)F)cc2)cc1)C(=O)c1ccc(-c2ccc(NC(=O)OC)cc2C)cc1` showed an IFI of 11%.

Molecule `Cc1cccc2nc(-c3cccc(-c4ccc(NC(=O)NCc5cccc(F)c5)cc4)c3)[nH]c12` registered an IFI of 9%.

In the case of `Fc1ccc2[nH]c(-c3ccc(-c4ccc(CNCCc5ccncc5)cc4)cc3)nc2c1`, the IFI was determined as 11%.

`Cc1sc2ccc(Cl)cc2c1S(=O)(=O)Nc1ccc2nccc(N3CC(C)NC(C)C3)c2c1` (stereo unspecified) registered an IFI of 2.22%. `CN(C)c1ccc(-c2csc(C(=O)NC3CCCCN(CCC(C)(C)C)C3)c2)cc1` (stereo unspecified) yielded an IFI of 10.6%. `NCCCCc1c(-c2ccc(Cl)c(Cl)c2)[nH]c2ccc(Cl)cc12` had an IFI of 9.09%. Molecule `Cc1cc(C2CCN(CCCCNC(=O)c3ccc(NC(=O)c4ccc(Cl)cc4)cc3)CC2)c(C)cc1OCc1cccnc1` returned an IFI of 3.03%. Regarding `COc1ccc2[nH]ccc(=NN=Cc3ccc(N(C)C)cc3)c2c1`, the IFI came to 4.29%. For the molecule `CNC(=O)c1cnc(Nc2ccc(N3CCN(C)CC3)cc2)nc1Nc1cccc(OC(C)C)c1`, the IFI amounted to 4.48%. The result for `CC(Cc1ccc(COc2ccc(CC(CO)NCCc3cccc(Cl)c3)cc2)cc1)NCCc1cccc(Cl)c1` (stereo unspecified) reads 16.6%; that for `CC(C)(C)CC(C)(C)c1ccc(O)c(C(=O)Nc2ccc([N+](=O)[O-])cc2)c1`, 14.1%.

Molecule `Cc1cccc2nc(-c3cccc(-c4cccc(NC(=O)C(C)CN5CCN(C)CC5)c4)c3)[nH]c12` (stereo unspecified) had an IFI of 0.93%. The result for `Cn1ccc(-c2cccc(Nc3ccnc4cc(-c5nccs5)ccc34)c2)n1` reads 8.57%; that for `CCN(CC)CCNC(=O)c1ccc(NC(=O)c2cc(-c3ccncc3)nc3ccccc23)cc1`, 0%. The result for `O=C(Nc1cccc(-c2ccc(-c3nc4cc(F)ccc4[nH]3)s2)c1)c1cccnc1` reads 3.74%; that for `Oc1cc(-c2cccc(C(F)(F)F)c2)nc(Nc2ccc(Cl)c(Cl)c2)n1`, 9.41%; that for `O=C(N[C@@H](CC1CCCCC1)C(=O)NC1CCCCCC1)c1ccc(O)c(-c2ccc(Cl)c(Cl)c2)c1`, 1.48%.

`Cc1cccc2nc(-c3ccc(-c4cccc(NC(=O)c5cncn5C)c4)cc3)[nH]c12` returned an IFI of 3.6%. `Cc1ccccc1-c1cc(=O)c2cc(NC(=O)c3cccs3)ccc2o1` gave an IFI of 2.13%. Molecule `O=C(Nc1ccnc(N2CC3CC2CN3Cc2cccc(O)c2)c1)c1ccc(F)cc1` (stereo unspecified) returned an IFI of 2.7%. In the case of `COc1ccccc1-c1cccc(-c2cccc(NC(=O)c3ccc([N+](=O)[O-])o3)c2)n1`, the IFI was 11.9%.
